Reference: PubChem BioAssay AID445 (National Center for Advancing Translational Sciences (NCATS), 2006)
In all, about 110,000 compounds went through this assay and about 40 (0.04%) were called active. Inconclusive means that the source gave no clear call. Such entries were picked first, then a sample of the others. Calls come from the whole dose curve; as a rule, active = well fitted curve in the direction sought with a large enough effect in the signal ratio (not every such curve was filed as active); inconclusive = small, poorly fitted or top-dose-only effect, or a change in a side signal; inactive = flat fitted curve, though single readings scatter; the % refers to the signal ratio. Potencies beside an inconclusive call are fits to weak or partial responses and may not hold up.

Assay: IkB Signaling
Conditions: ABC-DLBCL IkBa-CBG/CBR dual luciferase ratio (green luciferase fused to IkBa over red control in OCI-Ly3 lymphoma cells), 4 h; IkBa stabilization activation: at 57.1 µM (top of the series), scaled: untreated 0%, proteasome inhibitor 100% unless noted
How it was run: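 Luminescence ratio of IκBα-fused green versus native red beetle luciferase in OCI-Ly3 cells, 4 h post-doxycycline with compound; red signal alone, scaled from basal (0%) to zero light (-100%), flagged nonspecific or cytotoxic effects.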
Potency is the fitted concentration of half-maximal effect.

SMILES	IkBa stabilization activation	Potency
COc1ccc(Cn2c(CCC(=O)Nc3ccc(Br)c(C)c3)nc3cccnc32)cc1	inconclusive: 2.08% [signal inhibitor]	
CCOC(=O)C1CCC(CN(Cc2ccc(OC)cc2)S(=O)(=O)c2ccc(C)cc2)CC1 (configuration not stated)	inconclusive: 0.292% [signal inhibitor]	
O=C(Nc1cc(Cl)cc(Cl)c1)c1ccc(F)c(S(=O)(=O)N2CCCC2)c1	inconclusive: -2.33% [signal inhibitor]	
CCCC(=O)Oc1c(Sc2ccc(C)cc2)c(C)nn1-c1ccccc1	inactive	
NC1(C(=O)NC2(C(=O)O)CCCC2)CCCC1	inactive: -0.207% [at 11.4 µM, scaled: untreated 0%, proteasome inhibitor 100%]	
COC(=O)c1ccccc1NC(=O)c1cc2ccccn2n1	inconclusive: 13.9% [signal inhibitor]	
O=C(Cn1ncn2c(cc3cc(F)ccc32)c1=O)NC1CCCCC1	inconclusive: 7.4% [signal inhibitor]	
COc1ccc(Nc2ncnc3scc(-c4ccc(F)cc4)c23)cc1	inconclusive: -0.415% [signal inhibitor]	
COc1ccc(NC(=O)c2sc3nc(C)c(C(=O)Nc4ccc(C)cc4C)c(-c4sccc4C)c3c2N)cc1	inconclusive: 5% [signal inhibitor]	
Cn1cccc1Cc1nnc(SCC(=O)Nc2cccc(Cl)c2)n1-c1ccc(F)cc1	inconclusive: -0.418% [signal inhibitor]	
CCc1c(CN2CCN(c3ccc(F)cc3)CC2)csc1C	inconclusive: -1.75% [signal inhibitor]	
O=S(=O)(c1ccccc1F)N(Cc1ccco1)Cc1nnc(-c2ccccc2Br)o1	inconclusive: 3.66% [signal inhibitor]	
COc1ccccc1-c1cc(C(F)(F)F)nc(S(=O)(=O)CCCC(=O)Nc2ccccc2F)n1	inconclusive: -12.4% [signal inhibitor]	
O=C(COc1ccc(Cl)cc1)NCCc1csc(-c2ccc(C(F)(F)F)cc2)n1	inconclusive: 2.41% [signal inhibitor]	
COc1cc2c(cc1NC(=O)COc1cc(C)cc(C)c1)oc1ccccc12	inconclusive: 10.6% [signal inhibitor]	
O=C(CCCC(=O)N(CC(=O)NC1CCCCC1)CC1CCCO1)Nc1ccccn1 (configuration not stated)	inactive	
O=C(NCc1ccccn1)C1CCCN(S(=O)(=O)c2ccc(Br)cc2)C1 (configuration not stated)	inconclusive: 1.36% [signal inhibitor]	
COc1ccccc1-n1cnnc1SCC(=O)Nc1ncc(Cl)cc1Cl	inconclusive: 13.2% [signal inhibitor]	
COc1ccc(NC(=O)c2cnc(N3CCOCC3)c3ccccc23)cc1OC	inconclusive: 6.31% [signal inhibitor]	
COc1cccc(CCNC(=O)c2ccc(Cn3c(SCc4ccccc4)nc4cccnc43)cc2)c1	inconclusive: 3.72% [signal inhibitor]	
Cc1cccn2c(=O)c3cc(C(=O)NC(C)C)n(C)c3nc12	inconclusive: 0.394% [signal inhibitor]	
COc1cccc(N2CCN(CC(=O)Nc3nc4c(s3)CC(C)CC4)CC2)c1 (configuration not stated)	inconclusive: 3.05% [signal inhibitor]	
COc1ccc(C(=O)Nn2c(SCC(=O)NCc3ccco3)nc3ccccc3c2=O)cc1	inactive	

SMILES	IkBa stabilization activation	Potency
COc1ccc(-c2nc3ccccc3n2Cc2ccc(C(C)C)cc2)cc1	inconclusive: 0.717% [signal inhibitor]	
CCOc1ccc(NC(=O)Cn2cc(C(=O)c3ccc(F)cc3)c(=O)c3cc4c(cc32)OCO4)cc1		inconclusive: 39.8 µM [signal activator, single point]
Cc1nn2c(=O)cc(COC(=O)c3ccc(NC(=O)CCc4ccccc4)cc3)nc2s1	inconclusive: 3.55% [signal inhibitor]	
CCc1noc(-c2ccc(N3CCC(C)CC3)c([N+](=O)[O-])c2)n1	inactive	
CCC(Sc1nc2cc3c(cc2c(=O)n1CCCCCC(=O)NCc1ccc2c(c1)OCO2)OCO3)C(=O)NCCCOC (configuration not stated)	inconclusive: 1.22% [signal inhibitor]	
COc1ccc(N(C(=O)Nc2ccc(Cl)cc2)C2=NCCC2)cc1	inconclusive: 2.39% [signal inhibitor]	
CCc1ccc(CCC(=O)Nc2ccc(C)cc2C)o1	inactive	
Cc1c(Cl)cccc1NC(=O)c1cc(-c2cccc(Cl)c2)on1		inconclusive: 20 µM [signal inhibitor, partial curve]
CC(C)C(=O)Nc1ccccc1C(=O)OCc1cc(=O)n2nc(C3CC3)sc2n1	inactive	
Cc1ccc(-c2cc(C(=O)NCCCN3CCOCC3)no2)cc1	inconclusive: 5.21% [signal inhibitor]	
COc1cc2c(C(=O)N3CCN(c4cccc(Cl)c4)CC3)cn(C)c(=O)c2cc1OC	inconclusive: -2.04% [signal inhibitor]	
CCc1ccc(CNC(=O)CN2C(=O)CSc3ccc(S(=O)(=O)N4CCOCC4)cc32)cc1	inconclusive: 2.21% [signal inhibitor]	
COc1cccc(C(=O)N(Cc2ccc(N(C)C)cc2)Cc2ccco2)c1	inconclusive: -0.379% [signal inhibitor]	
N=C1C=CC(=C(c2ccc(N)cc2)c2ccc(N)cc2)C=C1	inactive	
CCc1ccc(S(=O)(=O)NCc2cccn2Cc2cccc(C)c2)cc1	inconclusive: 4.26% [signal inhibitor]	
CC(=O)Nc1ccc(NC(=O)C2CC(=O)N(c3cccc(C)c3C)C2)cc1 (configuration not stated)	inactive	
COc1cc(OC)c(NC(=O)CCc2nc(-c3cccs3)no2)cc1Cl	inconclusive: 4.83% [signal inhibitor]	
COc1cc(C(=O)Nc2sc3c(c2C(N)=O)CCC(C)C3)cc(OC)c1OC (configuration not stated)	inconclusive: 4.63% [signal inhibitor]	
COc1ccc(CCNC(=O)CSc2cc(=O)n(C)c3ccccc23)cc1OC	inactive	
O=c1c(O)c(-c2ccc(O)cc2)oc2ccc(O)cc12	inconclusive: -2.78% [signal inhibitor] [at 11.4 µM, scaled: untreated 0%, proteasome inhibitor 100%]	
O=C(NCc1cccc(Cl)c1)c1cnc(N2CCCCC2)c2ccccc12	inconclusive: 2.91% [signal inhibitor]	
Cc1cccc(N2CCN(c3ncnc4onc(C)c34)CC2)c1C	inconclusive: -3.68% [signal inhibitor]	
CCc1ccc(C2N=C(N)Nc3nc4ccccc4n32)cc1 (configuration not stated)	inconclusive: 8.97% [signal inhibitor]	

SMILES	IkBa stabilization activation	Potency
Cc1ccc(-n2ncc(C(=O)NCCc3ccsc3)c2C2CCN(C(=O)OC(C)(C)C)CC2)c(C)c1	inconclusive: -0.924% [signal inhibitor]	
Cc1c(C(=O)O)c(O)cc2c1C(=O)c1c(O)c([C@@H]3O[C@H](CO)[C@@H](O)[C@H](O)[C@@H]3O)c(O)c(O)c1C2=O	inactive: -0.316% [at 11.4 µM, scaled: untreated 0%, proteasome inhibitor 100%]	
Nc1nc(-c2ccc(Br)cc2)cs1	inactive	
C=C(C)COc1ccc(-c2n[nH]c(C)c2-c2ccccc2OC)c(O)c1	inconclusive: -3.03% [signal inhibitor]	
CCOCC(=O)O	inactive	
COc1ccc(Cl)cc1NC(=O)CN(c1cccc(C)c1C)S(C)(=O)=O	inconclusive: 10.7% [signal inhibitor]	
CC(C)[C@@H](CC(=O)N[C@@H]1CCNC[C@H]1C(=O)N[C@H](CC(=O)N[C@@H](CCC(=O)O)CC(=O)O)Cc1c[nH]c2ccccc12)NC(=O)C[C@H](Cc1ccccc1)NC(=O)[C@@H]1CNCC[C@H]1N	inactive	
COc1cccc2c1[C@@H]1CN(CCCCn3c(=O)[nH]c4c(sc5ncc(-c6ccccc6)nc54)c3=O)C[C@H]1CO2	inactive	
COc1cccc(C(=O)Nc2nc3c(s2)CCCC3)c1		inconclusive: 25.1 µM [signal inhibitor, single point]
CN(Cc1ccccc1)C(=O)C(=O)Nc1ccc2nc3n(c(=O)c2c1)CCCCC3	inconclusive: 0.697% [signal inhibitor]	
COc1ccc(-n2c(=O)c3ccc(C(=O)NCc4ccc(C)cc4)cc3n(CC(=O)Nc3cccc(F)c3)c2=O)cc1	inactive	
CNc1ccc(-c2nc(-c3ccccn3)no2)cc1[N+](=O)[O-]	inconclusive: 11.4% [signal inhibitor]	
COc1cccc(Oc2cn[nH]c2-c2ccc(O)cc2O)c1	inactive	
CCOc1cc(CNCCSc2nnnn2C)ccc1OCc1ccc(Cl)cc1Cl	inconclusive: -1.39% [signal inhibitor]	
Cc1ccc(NC(=O)CN2C(=O)COc3ccc(S(=O)(=O)N4CCCCC4)cc32)cc1Cl	inconclusive: 0.0335% [signal inhibitor]	
c1ccc(OCc2nnc3sc(-c4cccs4)nn23)cc1	inconclusive: 3.94% [signal inhibitor]	
CCOC(=O)c1ccc(NC(=O)c2ccc3c(c2)OCO3)cc1	inconclusive: 2.79% [signal inhibitor]	
COc1ccc(NC(=O)Cn2nnnc2-c2ccccc2F)c(C)c1	inactive	
COCCCn1c(=N)c(C(=O)NCc2ccc3c(c2)OCO3)cc2c(=O)n3cccc(C)c3nc21	inactive	
COC(=O)c1ccc(NC(=O)CC2C(=O)N(c3cccc(F)c3)C(=O)N2CC(C)C)cc1 (configuration not stated)	inconclusive: 2.58% [signal inhibitor]	
Cc1ccc(-n2nc(C(=O)N3CCCCC3)c(=O)n(C)c2=O)cc1	inconclusive: 0.0966% [signal inhibitor]	
